Source: the RNAGym collection of RNA variant scans (doi:10.7554/elife.90254)
Read counts are not given, so values of variants with three or more changes are uncertain.

B1: OR4K15 (parent)
chain: GUUAACGGUCAUAGGCCAUGGAAACUAGGAGCACCAUUUCGCUGCCAGUGAAGAAAUGAACAAAGAAAAUCUGGGCCAGGCAGGCAUCAAAAGAAAUAGUCUUGCGCUCAACCAGAAAGUCUGUAAUCAUUUUAAGGGUA

Variants of: B1
Assay: self-cleavage, relative activity (ratio to wild type); higher = more cleavage; in vitro, sequencing; the parent is a self-cleaving ribozyme
A47G A51U U124C showed a self-cleavage of 0.6.
Variant A47U A68G A110G has a self-cleavage of 0.1.
Variant U43G G44U A118G has a self-cleavage of 1.17.
For A47G A59G U133C, the self-cleavage was 0.77.
A47G U49A A94G showed a self-cleavage of 0.61.
A47G A56G A59G showed a self-cleavage of 0.88.
Variant A47G U100C U103C A111G has a self-cleavage of 0.
A47G A89U A118G U130C gave a self-cleavage of 0.43.
In the case of A47C U49C A90G A94G C105A, the self-cleavage is reported as 0.01.
A47G A89U U131C showed a self-cleavage of 0.93.
With U43C U100C U124C U127C the self-cleavage was 0.99.
For C46U A78C A90G A91G A116G, the self-cleavage was 0.11.
For U43A A69G G123A, the self-cleavage was 0.69.
With U43G U57C A98U the self-cleavage was 1.4.
In the case of G44A A62G U100C, the self-cleavage is reported as 2.07.
U43A A92G U108A A117G showed a self-cleavage of 0.01.
Variant U43C A51G A117G A140U has a self-cleavage of 2.02.
Variant U43G U49C A54G A59G U87C U100C has a self-cleavage of 1.42.
A47U U57G A91C gave a self-cleavage of 0.44.
A47U A66G A67G A96G showed a self-cleavage of 0.41.
U43C A90G C109U A125G showed a self-cleavage of 0.08.
For A47G U87C A111G U122C, the self-cleavage was 0.01.
Variant U43C A51G A78U U122C has a self-cleavage of 0.32.
In the case of A47U A78U A126G, the self-cleavage is reported as 0.17.
Work on C46A A51U A96U yielded a self-cleavage of 0.91.
Variant U43C U72G G83U A90G has a self-cleavage of 0.22.
For A47G G80A A96G C113U, the self-cleavage was 0.
Variant U43C U49A A55U A56G A95G U100C has a self-cleavage of 1.35.
U43C A116G A126G U127C gave a self-cleavage of 0.1.
A47G U49A A117G U122A A125G U130A showed a self-cleavage of 0.12.
A47G A56G U127C U139C showed a self-cleavage of 0.71.
With A47G A56G U132C the self-cleavage was 0.95.
Work on U43C A95G A111G A118G yielded a self-cleavage of 0.01.
With A47U A62G A78G U132C the self-cleavage was 0.19.
Variant C45U U87A U102C has a self-cleavage of 1.97.
In the case of A47G A63G A64G U131C, the self-cleavage is reported as 0.72.
U43A A51U G83U A98U A116G showed a self-cleavage of 0.23.
A47C A64G A69G U108A gave a self-cleavage of 0.01.
For G44C A56G U70C A126U, the self-cleavage was 0.43.
Work on A47G G79U A98U yielded a self-cleavage of 0.05.
U43C A51G U139C showed a self-cleavage of 1.06.
With A47G A59G G75A A90G A116G U120A the self-cleavage was 0.02.
Work on A47G G80U A135U yielded a self-cleavage of 0.1.
Variant U43C A64C A118G has a self-cleavage of 2.16.
U43C A51G A82U A91G gave a self-cleavage of 0.22.
For A47U U72C C109A U124C A126G, the self-cleavage was 0.03.
For A47U U49C A114G U132C, the self-cleavage was 0.06.
For U43A A59G A116G A134G, the self-cleavage was 0.4.
A47G A59G A78G A94G gave a self-cleavage of 0.14.
U43C A68G A91G A92G gave a self-cleavage of 1.2.
In the case of U43C U97C U122C, the self-cleavage is reported as 1.04.
In the case of U43A A60G A94G, the self-cleavage is reported as 1.35.
Variant U43A A55C U108A A118G has a self-cleavage of 0.01.
U43A A56U A66G U139C showed a self-cleavage of 0.91.
Work on U43C A67G A78G G83U A96G yielded a self-cleavage of 0.15.
A47G U87C U108C showed a self-cleavage of 0.01.
With C45G A66C A86G A94G the self-cleavage was 1.49.
U43G A51G A55G U108C A110U U120G gave a self-cleavage of 0.01.
Work on U43C G44A U87G yielded a self-cleavage of 0.84.
For A47G A67G U122C A135G, the self-cleavage was 0.51.
For C46A A47C A62G A67G U103C, the self-cleavage was 0.26.
For U43C A90G U132C, the self-cleavage was 0.97.
With A47G U120A U130C the self-cleavage was 0.21.
With A47U A64G A118G the self-cleavage was 0.22.
For G41A C85U A111G A116U U122C, the self-cleavage was 0.01.
For U43C A68G A86U, the self-cleavage was 1.86.
In the case of A47U A90G U120C, the self-cleavage is reported as 0.28.
Variant A47U U57C A135G has a self-cleavage of 0.53.
For U43A A94G U127C, the self-cleavage was 1.02.
In the case of U43C A96G G138A, the self-cleavage is reported as 1.89.
With U43C A89G G115A the self-cleavage was 0.34.
C42U A69G A89G showed a self-cleavage of 1.83.
Variant A47C A92U A110G U122A has a self-cleavage of 0.08.
In the case of U43C A47U A63G G83A U103C A114U A126C, the self-cleavage is reported as 0.
With U43C A51G A94G U100C U103C U130C the self-cleavage was 1.23.
In the case of C45U A63G U131C, the self-cleavage is reported as 1.27.
With U43C A69G A98G A117G A118G the self-cleavage was 0.19.
In the case of U43C U57C A94G A95G U103G, the self-cleavage is reported as 0.02.
A47U A60G A69U gave a self-cleavage of 1.15.
Work on A47C U100C A129G yielded a self-cleavage of 2.66.
Variant U43C C81G U103A A114U has a self-cleavage of 0.02.
C45U A116G U132C showed a self-cleavage of 0.12.
U43C A68G U100C U127C showed a self-cleavage of 2.08.
For A47G C81A A92G U108A, the self-cleavage was 0.
A47U U72C C81U showed a self-cleavage of 0.23.
Work on U43G A95G U120A yielded a self-cleavage of 2.44.
For A47U A64G A114G A129G, the self-cleavage was 0.04.
In the case of G44A U72C A89G, the self-cleavage is reported as 0.3.
For A47G U97C U122C, the self-cleavage was 0.61.
In the case of A47U A51C A62G A95G, the self-cleavage is reported as 0.75.
Work on U43C A68G G73A yielded a self-cleavage of 0.28.
For U43A A54U A64U A96C, the self-cleavage was 0.69.
Variant A47G A52G A63G U103A G138A U139G A140G has a self-cleavage of 0.48.
Variant A47G A94G A117G has a self-cleavage of 1.25.
U43C A47G A52G showed a self-cleavage of 0.79.
Variant U43C U70C A98G U103C has a self-cleavage of 0.01.
A47G A67G A117G showed a self-cleavage of 1.8.
For A47G U57C G137A, the self-cleavage was 0.71.
For U43A U70C A110G A135U, the self-cleavage was 0.11.
A47G U131C U132C gave a self-cleavage of 0.59.
Variant U43C A62G A69U U100C has a self-cleavage of 2.02.
In the case of U43C A69G A91G A92G A96G, the self-cleavage is reported as 0.52.
U43C U70C U102G showed a self-cleavage of 0.09.
For A47C U70C A90G, the self-cleavage was 0.86.
In the case of U43C A96G A117G U131C, the self-cleavage is reported as 1.56.
With U43A A66G A126G the self-cleavage was 0.77.
For U43A A98G U132A, the self-cleavage was 0.49.
Variant U43C U87C C113U A125G has a self-cleavage of 0.
A47U A51U A69G gave a self-cleavage of 0.51.
For A47U A60G A94G, the self-cleavage was 0.9.
For U43C A54G A92G, the self-cleavage was 1.85.
Work on U43C U97C A116G yielded a self-cleavage of 0.77.
A47U U57C G138A showed a self-cleavage of 0.3.
Variant U43C A60G A64G A91U A116G U122C has a self-cleavage of 0.58.
A47G A52G U72C gave a self-cleavage of 0.26.
U43C A51G A56G A64G A86U G99C U139C gave a self-cleavage of 0.05.
Variant U43C A91G G119A has a self-cleavage of 1.64.
With A47G U120C U130A the self-cleavage was 0.07.
Variant U43C A54G U57A U131C has a self-cleavage of 0.93.
Variant U43A A91G A92G has a self-cleavage of 0.8.
In the case of U43C A68G U70A U100C U102C, the self-cleavage is reported as 0.85.
For U43C U103C A114G, the self-cleavage was 0.25.
In the case of U43C A47G A56G G79A A98G, the self-cleavage is reported as 0.02.
U43A G83C G106A showed a self-cleavage of 0.02.
Work on U43C U102A U103A yielded a self-cleavage of 0.12.
A47C A60G A114U U124C showed a self-cleavage of 0.03.
U43C U124C A125G gave a self-cleavage of 0.
With U43A A47G A129G the self-cleavage was 0.52.
With U43G U108C U122A the self-cleavage was 0.01.
Variant U43C A52G A59U A66G A89G has a self-cleavage of 1.25.
For A47G G83U U120C U122C, the self-cleavage was 0.16.
In the case of U43C U72A U120G, the self-cleavage is reported as 0.35.
Work on U43A A67G A82U A116G A126G yielded a self-cleavage of 0.07.
For A47G A54G C128A, the self-cleavage was 0.33.
Work on U43C A95G U102A yielded a self-cleavage of 0.54.
For U43A A68G U103C, the self-cleavage was 1.37.
U43C A47G A96U showed a self-cleavage of 1.6.
For U43C A68G U127C, the self-cleavage was 1.07.
For G44A A60G A67G A90G, the self-cleavage was 0.53.
C45U U57C A63G A126G gave a self-cleavage of 1.35.
Work on U43C A67G A78G U120C yielded a self-cleavage of 0.14.
U43A A129G U139C showed a self-cleavage of 0.97.
With U43A A89G A92G A114U the self-cleavage was 0.01.
With A47G U97C A111G the self-cleavage was 0.02.
With A47U A54C A90G the self-cleavage was 0.41.
With U43G A67G A116G U132C the self-cleavage was 0.96.
U43C A60G A89C G115A A126G showed a self-cleavage of 0.03.
In the case of A47G U49A A111G, the self-cleavage is reported as 0.05.
U43C A66G U130C showed a self-cleavage of 1.07.
In the case of U43A G73A U87C A96G U122A, the self-cleavage is reported as 0.07.
Work on U43A U57C A68G A69G yielded a self-cleavage of 0.55.
For U43A A55G U120C, the self-cleavage was 1.92.
Variant A47G A52G A64G U103C A110G A125G A129G has a self-cleavage of 0.
U43A A56G A67G showed a self-cleavage of 1.12.
Variant U43A A56G A67U has a self-cleavage of 1.45.
Work on U43C A54G A94G U132A yielded a self-cleavage of 1.51.
With U43C A62U A98U the self-cleavage was 2.28.
Work on U43C A66U A78G A90G U127A yielded a self-cleavage of 0.15.
With U43A A51G A94G the self-cleavage was 1.96.
With A47G A55G A67G the self-cleavage was 0.71.
Work on A47G G74A A117G yielded a self-cleavage of 0.13.
Variant C46U A55G A98G U103C has a self-cleavage of 0.27.
In the case of A47G A55G A78U, the self-cleavage is reported as 0.25.
With A47U A68G A86G U87A U124C the self-cleavage was 0.26.
For A47G U70C U127C, the self-cleavage was 0.24.
With U43C A95G U133C the self-cleavage was 2.46.
With A47G A68G A82U the self-cleavage was 0.15.
